# Test results taken from PubChem BioAssay AID662 (National Center for Advancing Translational Sciences (NCATS), 2007).
# In all, about 71,000 compounds went through this assay and about 1,800 (2.5%) were called active. The shares of active, inactive and inconclusive entries below differ from those in the screen. Calls come from the whole dose curve; as a rule, active = well fitted activation curve with a large enough effect in the signal ratio, with a control signal flat (not every such curve was filed as active); inconclusive = small, poorly fitted or top-dose-only effect, or effect the other way, or a change in a side signal; inactive = flat fitted curve, though single readings scatter; the % refers to the signal ratio. Potencies beside an inconclusive call are fits to weak or partial responses and may not hold up.
# Test: Cell signaling CRE-BLA (Fsk stim); for activity change, negative = inhibition: % of control where 0% means no effect
# Conditions: CHO CRE-bla reporter (cAMP response element driving beta-lactamase), forskolin EC10, beta-lactamase ratio; activity change, negative = inhibition: at 38.2 µM (top of the series) unless noted
# Procedure, shortened: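 CRE-bla CHO cells stimulated with EC10 NKH 477 (water-soluble forskolin) and compound titrations, 3 h at 37C; beta-lactamase read with CCF4 after 2 h at room temperature. Activity from 460/530 nm emission ratio, AC50 values for positive or negative modulation.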
# Potency is the fitted concentration of half-maximal effect; tags give direction and shape of the fitted curve.
SMILES,Potency,"activity change, negative = inhibition"
CCOc1ccc(NS(=O)(=O)c2ccc3[nH]cc(C(=O)N(CC)CC)c(=O)c3c2)cc1,"inconclusive: 0.0316 µM [falling, full curve, poor fit]",–
Cc1nc2ccc(F)cc2cc1C(=O)NCc1ccco1,–,inconclusive: 2.13%
c1coc(-c2nc3nc4ccccc4nc3n2CC2CCCO2)c1 (stereo unspecified),"inconclusive: 20 µM [rising, single point]",–
CCC(=O)N1CCc2cc(S(=O)(=O)CCC(=O)NCCC3=CCCCC3)ccc21,–,inconclusive: 9.97%
O=c1cc(N2CCOCC2)[nH]c(=O)n1C1CCCCC1,–,inconclusive: 7.45%
Cc1cc(Br)ccc1OCC(=O)N(Cc1nc(-c2ccccc2)no1)C(C)C,"inconclusive: 0.0631 µM [rising, full curve, poor fit]",–
CCOC(=O)c1c(NC(=O)COc2ncnc3sccc23)sc2c1CCC2,"inconclusive: 20 µM [rising, partial curve, poor fit]",–
Cc1cc(N2CCOCC2)n2nc(-c3cccc(F)c3)cc2n1,–,inactive
CN1CCCc2cc3c(C(F)(F)F)cc(=O)oc3nc21,"inconclusive: 10 µM [rising, partial curve]",–
CCN(CC)S(=O)(=O)c1ccc2nc(COC(=O)c3n[nH]c4ccccc34)[nH]c2c1,"inconclusive: 20 µM [rising, partial curve]",–
Cc1nnc2sc(-c3ccc(NC(=O)c4ccc(-c5ccc(Br)cc5)o4)cc3)nn12,"inconclusive: 20 µM [rising, single point]",–
N#Cc1cccc(NC(=O)N2CCCC3(CCN(C(=O)c4cc(C(F)(F)F)cc(C(F)(F)F)c4)CC3)C2)c1,–,inactive
CCC1(CC)C(=O)NC(=O)NC1=Nc1cccc(OC)c1,–,inconclusive: 8.38%
CCc1c(C)nc2ncnn2c1NCCc1ccc(OC)cc1,"inconclusive: 10 µM [rising, partial curve]",–
c1ccc2c(Cn3ccnc3)c[nH]c2c1,–,inconclusive: -3.51% [at 7.6 µM]
CCCc1cc(C(=O)Nc2sc3c(c2C#N)CCC3)no1,–,inconclusive: 24.7%
Cc1cc(=O)n2nc(N3CCC(C(=O)NCc4cccnc4)CC3)sc2n1,–,inconclusive: 4.04%
O=c1oc2ccccc2c2c1ncn2C1CCCCC1,"inconclusive: 12.6 µM [rising, partial curve]",–
COC(=O)c1[nH]c2cc(C)ccc2c1NC(=O)CN1CCN(c2ccccc2OC)CC1,–,inconclusive: 22.4%
CN(C)c1ccc(/C=C/c2ccncc2)cc1,"inconclusive: 10 µM [rising, partial curve]",–
COC(=O)C1=C(CN2CCCc3ccccc32)NC(=O)NC1c1ccc(F)cc1 (stereo unspecified),"inconclusive: 5.01 µM [rising, partial curve]",–

SMILES,Potency,"activity change, negative = inhibition"
O=C(NCc1cccs1)c1cccc(S(=O)(=O)N2CCCCC2)c1,"inconclusive: 3.16 µM [falling, single point]",–
COc1ccccc1NC(=O)CN1C(=O)CCS(=O)(=O)c2ccccc21,–,inconclusive: -0.701%
CCCS(=O)(=O)N1CCCC(C(=O)N2CCN(c3ccccn3)CC2)C1 (stereo unspecified),–,inactive
Cc1cccc(CSc2nncc(=O)[nH]2)c1,–,inconclusive: -0.429%
CCC(=O)Nc1ccc(S(=O)(=O)Nc2cccc(C)c2)cc1OC,–,inconclusive: -5.63%
CCCn1nnc(NC(=O)COc2ccccc2Cl)n1,–,inconclusive: -5.05%
Cc1onc(-c2ccccc2Cl)c1C(=O)N1CC(C)OC(C)C1 (stereo unspecified),–,inconclusive: -2.68%
COC(=O)C1=C(C)N(CCc2ccc(OC)cc2)C(=O)C1,–,inconclusive: 9.88% [at 7.6 µM]
COCCn1c(=O)c(-c2cccc(C#N)c2)nc2cnc(N(C)C)nc21,"inconclusive: 25.1 µM [falling, single point]",–
COc1ccccc1S(=O)(=O)Cc1ccc(C(=O)NC(C)c2ccc3c(c2)OCCO3)o1 (stereo unspecified),–,inactive
Cc1cc(N2CCOCC2)nc(SCC(=O)c2ccc(Cl)cc2)n1,active: 10 µM,–
COc1ccc(NC(=O)N(C2CCCCC2)C(C)c2cccnc2)c(OC)c1 (stereo unspecified),–,inconclusive: 8.97%
CCOC(=O)CSc1nc2c(sc3ccccc32)c(=O)n1CCCN1CCOCC1,"inconclusive: 20 µM [rising, single point]",–
CC(OC(=O)C1CCN(S(=O)(=O)c2ccccc2)CC1)C(=O)Nc1ncc(Cl)cc1Cl (stereo unspecified),"inconclusive: 5.01 µM [rising, single point]",–
CSc1nnc2c(n1)[nH]c1c(C)cccc12,"inconclusive: 10 µM [rising, partial curve]",–
CC(=O)Oc1cccc(N2C(=O)C3C4C=CC(C4)C3C2=O)c1 (stereo unspecified),–,inconclusive: -0.788% [at 7.6 µM]
O=c1[nH]cnc2nc(-c3ccccc3)c(-c3ccccc3)nc12,–,inconclusive: -5.07%
C=CC(=O)CC,–,inactive
CCOC(=O)c1sc2ncn(C(C)C(=O)OCC)c(=O)c2c1C (stereo unspecified),"inconclusive: 10 µM [rising, single point]",–
COCCn1c(N)c(S(=O)(=O)c2cccs2)c2nc3ccccc3nc21,"inconclusive: 12.6 µM [rising, partial curve]",–
O=C(Nc1ccc(F)cc1F)c1cccnc1,"inconclusive: 3.98 µM [falling, single point]",–

SMILES,Potency,"activity change, negative = inhibition"
CC(C)NC[C@H](O)COc1cccc2[nH]ccc12,–,inconclusive: -14.6%
Cc1onc(-c2ccccc2)c1C(=O)Nc1ccccc1N1CCOCC1,–,inconclusive: 14.2%
COc1ccc(N2CCN(C(=O)CNC(=O)Cn3c(C)cc4ccccc4c3=O)CC2)cc1,–,inconclusive: 28.4%
Cc1ccc(-c2nc(C#N)c(NCc3cccc4c3OCO4)o2)cc1,"inconclusive: 25.1 µM [rising, single point]",–
COC(=O)c1cn(NC(=O)c2ccc3c(c2)OCO3)c(=O)c2ccccc12,–,inconclusive: -0.853%
COc1ccc(S(=O)(=O)N2CCN(CC(=O)Nc3ccc(F)c(F)c3)CC2)cc1,"inconclusive: 2.51 µM [rising, partial curve]",–
O/N=C1\CC(O)Cc2nonc21 (stereo unspecified),–,inactive
CC(C)CCNC(=O)c1cnn2c(C(F)(F)F)cc(-c3ccco3)nc12,active: 5.01 µM,–
O=C(Cc1ccccc1)Nc1nc2ccc(Cl)cc2c2nc(-c3ccco3)nn12,"inconclusive: 0.00501 µM [rising, full curve, poor fit]",–
CCN(CC)S(=O)(=O)c1ccc(-c2nnco2)cc1,–,inactive
CCOC(=O)Nc1c(C(=O)OC)[nH]c2cc(OC)ccc12,"inconclusive: 25.1 µM [rising, single point]",–
CN=c1scc(C)n1/N=C/c1ccc(O)cc1O,–,inactive
CCCN1C(=O)SC(CC(=O)Nc2ccccc2)C1=O (stereo unspecified),–,inconclusive: 0.476%
CCOc1ccccc1Nc1nnc(C)c(=O)[nH]1,–,inconclusive: -21.2%
c1cc2c3c(c1)c1c(n3CCNC2)CCCC1,–,inconclusive: -12.9%
Cc1ccccc1-n1c(=O)cc(N2CCc3ccccc3C2)[nH]c1=O,–,inconclusive: -15.3%
O=C(O)C1CC=C(Cl)CC1C(=O)NCC1OCCc2ccccc21 (stereo unspecified),–,inconclusive: -11.6%
Cc1ccc(CNc2nc3ccccc3n3nnnc23)cc1,"inconclusive: 15.8 µM [rising, partial curve]",–
CCOc1ccccc1-c1nn2c(Cc3ccccc3)nnc2s1,"inconclusive: 10 µM [rising, partial curve]",–
COc1ccc(CCN=C2SCC(=O)N2C)cc1OC,–,inactive
CCCCn1cnc2cc(NCc3cccc(OC)c3O)ccc21,–,inconclusive: 28.3%

SMILES,Potency,"activity change, negative = inhibition"
Cc1cc(OCC(=O)NCc2nc(-c3ccccc3)no2)c(C)cc1Br,–,inactive
COc1ccc(NS(=O)(=O)c2ccc3c(c2)Cc2ccccc2-3)cn1,"inconclusive: 7.94 µM [rising, partial curve, poor fit]",–
COc1ccc2nc(NCN3C(=O)c4ccccc4C3=O)sc2c1,–,inactive: -5.22% [at 7.6 µM]
COc1cc(C)nc(SCC(N)=O)n1,–,inconclusive: 12.2%
Oc1ccc(Br)cc1/C=N/n1cnc2ccccc21,–,inconclusive: -13.6%
COCC(=O)N(Cc1cc2cc(OC)ccc2[nH]c1=O)c1ccccc1,–,inconclusive: 18.9%
Cn1cnnc1SCC(=O)N1CCC(Cc2ccccc2)CC1,–,inactive
CCCCNc1ncnc2c1cnn2-c1ccccc1,"inconclusive: 10 µM [rising, single point]",–
Cc1cc(NC(=O)CSc2nnc(-c3ccc4c(c3)OCCO4)o2)no1,–,inconclusive: -4.52%
C1=CC2c3ccccc3NC(c3ccncc3)C2C1 (stereo unspecified),"inconclusive: 10 µM [rising, partial curve]",–
COc1ccc(CCNC(=O)CSc2nc(-c3ccco3)cc(C(F)(F)F)n2)cc1,–,inactive
Br/C(=N\Nc1nn[nH]n1)c1ccncc1,–,inactive: 6.98% [at 7.6 µM]
COC(=O)c1c(NC(=O)CCc2ccc(C)o2)sc(C)c1C,"inconclusive: 10 µM [rising, partial curve]",–
COc1ccc2cc(CCNC(=O)c3ccc(Br)o3)c(=O)[nH]c2c1,"inconclusive: 10 µM [rising, single point]",–
CCCCCCS(=O)Cc1ccccc1 (stereo unspecified),–,inactive
c1ccc(C2=Nn3c(nnc3-c3n[nH]c4c3CCC4)SC2)cc1,"inconclusive: 12.6 µM [rising, partial curve]",–
CCOC(=O)C1CCCN(C(=O)c2sc3nc(-c4ccc(F)cc4)cn3c2C)C1 (stereo unspecified),–,inconclusive: 15%
CCOC(=O)N1CCC(NC(=O)c2cccn3c(=O)c4cc(Br)ccc4nc23)CC1,–,inconclusive: 6.11%
